Among the data in paper PMC4242493 are binding signal (normalized occupancy) values, retold here.

Some of the results follow. The list includes weakly bound sequences.

For this assay, the target named is MaxL homodimer (UniProt P61244). Kind of assay: universal protein-binding microarray (PBM). Particulars: PBS-based mixture, 10 nM His-tagged protein dimer, 2% milk, 200 ng/uL BSA, 50 ng/uL salmon testes DNA, 0.02% TX-100; detection with Alexa 488 anti-His …; high values mean tight binding; most listed sequences are background and not binding sites; double strand, one strand shown.
UniProt P61244, sequence (P61244 whole entry): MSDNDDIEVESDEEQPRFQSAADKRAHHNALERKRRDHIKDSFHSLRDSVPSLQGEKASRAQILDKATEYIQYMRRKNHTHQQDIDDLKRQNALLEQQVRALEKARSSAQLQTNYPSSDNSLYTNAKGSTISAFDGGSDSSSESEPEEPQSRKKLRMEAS
Consider ACCGGCTC, for which the binding signal (normalized occupancy) amounted to 0.0681. Take AGAGGGTG: the binding signal (normalized occupancy) is 0.077. To ACATAAAC belongs 0.0829. To CGTATCAC belongs 0.0792; to AATGCTGA, 0.082. With GATCCACC, the binding signal (normalized occupancy) was determined as 0.0812.

Consider CTCTTAGC, for which the binding signal (normalized occupancy) was determined as 0.0798. Regarding CACAACCC, the binding signal (normalized occupancy) is 0.0801. In the case of CAGGATTC, the binding signal (normalized occupancy) was determined as 0.0733.

On to GGGATCCC, for which the binding signal (normalized occupancy) amounted to 0.0723. As for AAATTCCT, the binding signal (normalized occupancy) is 0.073. As for CATTCCAC, the binding signal (normalized occupancy) was found to be 0.0839. As for ACAGTCAA, the binding signal (normalized occupancy) is 0.074. As for ACGTGTAT, the binding signal (normalized occupancy) came to 0.117. With ATAGCCAT, the binding signal (normalized occupancy) amounted to 0.0853. AGGGCGCG: the binding signal (normalized occupancy) was 0.0681.

AGTTTGCC: the binding signal (normalized occupancy) stood at 0.0705. For the sequence AACGAGTA, the binding signal (normalized occupancy) was found to be 0.077.

As for CGAGCTTC, the binding signal (normalized occupancy) worked out at 0.0748. For the sequence GAGCTAGC, the binding signal (normalized occupancy) is 0.0715. Take AGGGAGCA: the binding signal (normalized occupancy) was 0.0728. Take AACGCTGG: the binding signal (normalized occupancy) is 0.0764. Consider TCGCTAGA, for which the binding signal (normalized occupancy) came to 0.0699. As for GCTCATCA, the binding signal (normalized occupancy) came to 0.0824. As to GGTCTGGA, the binding signal (normalized occupancy) was determined as 0.0728. To AACGCCGA belongs 0.0693; to AGAGGGCA, 0.08. In the case of AAATCTGA, the binding signal (normalized occupancy) amounted to 0.0782. Consider GGGCTAAA, for which the binding signal (normalized occupancy) came to 0.0734. For GATACCTA, the binding signal (normalized occupancy) is 0.0797. In the case of AAAAAACT, the binding signal (normalized occupancy) was 0.0712. For the sequence TATTTCCA, the binding signal (normalized occupancy) came to 0.0787. To CGCCGGCA belongs 0.0696. As to CTGGTGTA, the binding signal (normalized occupancy) came to 0.0786. On to CCAGATCG, for which the binding signal (normalized occupancy) came to 0.0689. On to AGCTTGAG, for which the binding signal (normalized occupancy) was found to be 0.0649. On to ACAAGCAC, for which the binding signal (normalized occupancy) came out at 0.0779. For the sequence GTTTAGCA, the binding signal (normalized occupancy) was 0.0697. As to GCGCCCGA, the binding signal (normalized occupancy) came out at 0.0658. With CAGAATCG, the binding signal (normalized occupancy) is 0.0691.

Regarding AGGCACTA, the binding signal (normalized occupancy) came to 0.07. As to CGGCGACA, the binding signal (normalized occupancy) came to 0.0733.

AGCGGAGC: the binding signal (normalized occupancy) turned out to be 0.0679.

With CGTCGAAA, the binding signal (normalized occupancy) was 0.0702. With CAAGTCGA, the binding signal (normalized occupancy) amounted to 0.0705.

With AGTTGGCG, the binding signal (normalized occupancy) is 0.0685.

For GAATTCTC, the binding signal (normalized occupancy) came out at 0.0755. In the case of ATATCGAT, the binding signal (normalized occupancy) is 0.0784. For the sequence CTTCGTGC, the binding signal (normalized occupancy) amounted to 0.0757. For the sequence CTTGGCGC, the binding signal (normalized occupancy) was 0.0674.

In the case of GTGGGGTA, the binding signal (normalized occupancy) was found to be 0.0861. Regarding CTATTCAC, the binding signal (normalized occupancy) came to 0.083.

Take AACACATC: the binding signal (normalized occupancy) turned out to be 0.0848.

As to CCATACCA, the binding signal (normalized occupancy) is 0.0838.

In the case of TAATCGTA, the binding signal (normalized occupancy) came out at 0.0765.

Turning to ATAGTGAC, the binding signal (normalized occupancy) turned out to be 0.0777.

For the sequence CATCCTAG, the binding signal (normalized occupancy) was 0.0749. With CCTTTGCA, the binding signal (normalized occupancy) stood at 0.0721. With CAGTGGGG the figure was 0.0757; with GGGAATCA, 0.0756; with CGCCTCAG, 0.0711. With ACTCTTAG the figure was 0.0762.

For the sequence AACTGATC, the binding signal (normalized occupancy) is 0.0745.

For the sequence CGAGGACA, the binding signal (normalized occupancy) came to 0.0774. In the case of CTGCGCCC, the binding signal (normalized occupancy) is 0.0679.

For GCGTTCAA, the binding signal (normalized occupancy) was found to be 0.0757. For CACCGCCA, the binding signal (normalized occupancy) is 0.0767. For AATTGGCT, the binding signal (normalized occupancy) amounted to 0.0714. For the sequence TAGTCACA, the binding signal (normalized occupancy) came out at 0.0887. In the case of CTAGTCCA, the binding signal (normalized occupancy) came to 0.0733. For the sequence ACTATGAG, the binding signal (normalized occupancy) amounted to 0.0806. On to CCAAGCGA, for which the binding signal (normalized occupancy) came out at 0.0745. With CGGAGAAG the figure was 0.0684; with AGGCACCG, 0.0732. CCTGGTGC: the binding signal (normalized occupancy) amounted to 0.0748. Regarding CTAATTCC, the binding signal (normalized occupancy) was 0.0722. As for GTCGGAGA, the binding signal (normalized occupancy) is 0.0698.

ACGCAAGA: the binding signal (normalized occupancy) was determined as 0.0753. With AAACGGGA the figure was 0.0751; with CAGCGAAC, 0.0694. In the case of AAGGTGGT, the binding signal (normalized occupancy) turned out to be 0.0778. Take AGGTAGCC: the binding signal (normalized occupancy) stood at 0.0711. To GGGTAAAA belongs 0.0765. For the sequence CAGACGCA, the binding signal (normalized occupancy) amounted to 0.0669. Regarding GCCTACAC, the binding signal (normalized occupancy) was found to be 0.083. As for CTGTGGAC, the binding signal (normalized occupancy) is 0.0726. To AGAAGCGG belongs 0.0695. Consider GAGCATAC, for which the binding signal (normalized occupancy) amounted to 0.0789.

Consider CTAATAAA, for which the binding signal (normalized occupancy) came to 0.0778.

Take GGAGATCC: the binding signal (normalized occupancy) came out at 0.0746. For TCTACGCA, the binding signal (normalized occupancy) worked out at 0.0731. In the case of AAAGGAAT, the binding signal (normalized occupancy) was determined as 0.0719. On to AACGCTAC, for which the binding signal (normalized occupancy) was 0.0825. Take AGATACTG: the binding signal (normalized occupancy) amounted to 0.0752.

In the case of AATATGAG, the binding signal (normalized occupancy) was determined as 0.0831. As for CTGATGTC, the binding signal (normalized occupancy) worked out at 0.0737. For AAAGTTGG, the binding signal (normalized occupancy) was 0.0693. Regarding ATATTAGA, the binding signal (normalized occupancy) turned out to be 0.0864. To CACGACAC belongs 0.0789; to CGTCAAAA, 0.073. In the case of CTTGAAGA, the binding signal (normalized occupancy) amounted to 0.0703.

CGCCGTGA: the binding signal (normalized occupancy) is 0.0741. In the case of GAAATCGC, the binding signal (normalized occupancy) turned out to be 0.0673. Turning to CTGCCGTC, the binding signal (normalized occupancy) was found to be 0.0702. For ACCTGTAT, the binding signal (normalized occupancy) was 0.0849.

Regarding AGTAGTGG, the binding signal (normalized occupancy) was determined as 0.0787.

Regarding AATACCGC, the binding signal (normalized occupancy) was 0.0734. To CTGCTGAC belongs 0.0705; to AGTAGCGA, 0.0676. On to ATGGCAAC, for which the binding signal (normalized occupancy) came out at 0.0773. In the case of CTTTAGGA, the binding signal (normalized occupancy) is 0.0753. To GCGCCACA belongs 0.0784. With GAGGTCCC the figure was 0.0679. As to GGCCTTAC, the binding signal (normalized occupancy) amounted to 0.0719.

With CCTCAGCG, the binding signal (normalized occupancy) is 0.0718. As to ACCGCGTC, the binding signal (normalized occupancy) came out at 0.0706. For CCCGAGTA, the binding signal (normalized occupancy) worked out at 0.0705.

For the sequence CGTGTTGC, the binding signal (normalized occupancy) stood at 0.0822.

For AAACGGCA, the binding signal (normalized occupancy) was 0.0703. To GTTTACAA belongs 0.0742; to AATCGGGA, 0.0782.

CATAGATG: the binding signal (normalized occupancy) was 0.0809. As for ACACGACT, the binding signal (normalized occupancy) is 0.0807.

For the sequence ACTTCGAA, the binding signal (normalized occupancy) amounted to 0.0685. On to GGCCCCCC, for which the binding signal (normalized occupancy) was found to be 0.0687.

Turning to ATAGACTG, the binding signal (normalized occupancy) stood at 0.0745.

Turning to CGGCTCGA, the binding signal (normalized occupancy) is 0.0657. Regarding ATGGAGCA, the binding signal (normalized occupancy) turned out to be 0.0766. To AACTAAAT belongs 0.0763; to GACCTCGA, 0.073; to ATACTGGC, 0.0812. With AAGCGCTA, the binding signal (normalized occupancy) was 0.0673. In the case of ACGATTCC, the binding signal (normalized occupancy) turned out to be 0.0769. For CACCTAGA, the binding signal (normalized occupancy) is 0.0748.

Turning to AGACGCTC, the binding signal (normalized occupancy) was found to be 0.0708. On to CCTCAGTC, for which the binding signal (normalized occupancy) worked out at 0.0681.

In the case of AAATAACA, the binding signal (normalized occupancy) came to 0.0817. As for CCGAATAA, the binding signal (normalized occupancy) was found to be 0.0678.

Regarding CACGCTAA, the binding signal (normalized occupancy) is 0.0891. On to ACCATCAA, for which the binding signal (normalized occupancy) turned out to be 0.0729. With ATTGCACA the figure was 0.0792. With CGGGGGCA, the binding signal (normalized occupancy) is 0.0747. Turning to CTTCCACA, the binding signal (normalized occupancy) came out at 0.0773. In the case of ATGGTATG, the binding signal (normalized occupancy) came to 0.0796.

On to AGGACGTG, for which the binding signal (normalized occupancy) worked out at 0.0736.

Take GTCCCCTA: the binding signal (normalized occupancy) came out at 0.0697. For the sequence AAACACAG, the binding signal (normalized occupancy) was 0.0769. ACAGTGAA: the binding signal (normalized occupancy) stood at 0.07. As to ATCGTGGG, the binding signal (normalized occupancy) turned out to be 0.0895. GCGCTAGA: the binding signal (normalized occupancy) turned out to be 0.0704.

As for GTCCGATA, the binding signal (normalized occupancy) amounted to 0.0757.

Consider CAGGTTAC, for which the binding signal (normalized occupancy) is 0.0725. For the sequence GTCCTACA, the binding signal (normalized occupancy) was determined as 0.0752. As for AAGGTACA, the binding signal (normalized occupancy) was found to be 0.0766.

With GACATCTC, the binding signal (normalized occupancy) turned out to be 0.078. To ATAGACAG belongs 0.0718; to GAACCCGA, 0.0696. For the sequence CTAATTAA, the binding signal (normalized occupancy) is 0.0756. With ACTCCGTC the figure was 0.0703; with GATAACGC, 0.0726; with CTCTAAGC, 0.0737. With CATTCGCG the figure was 0.0781. To AAGGGTGG belongs 0.0818. Turning to CATGCGCG, the binding signal (normalized occupancy) worked out at 0.11. As for ACGTACGC, the binding signal (normalized occupancy) amounted to 0.0764. With AATGGAAA the figure was 0.0735; with AAAGGGAC, 0.0699. Turning to GCCAATCA, the binding signal (normalized occupancy) worked out at 0.0763.

With CATACCAC, the binding signal (normalized occupancy) worked out at 0.0898.

Regarding AAAGTAGG, the binding signal (normalized occupancy) was 0.0719. As for ACCTGCCT, the binding signal (normalized occupancy) was found to be 0.0834. For GATCGCCA, the binding signal (normalized occupancy) was 0.0755.
